Laboratory results as given in the RNAGym collection of RNA variant scans (doi:10.1093/nar/gkz1192).
Read counts are not given, so values of variants with three or more changes are uncertain.

B1: CPEB3 Ribozyme (parent)
chain: UAACAGGGGGCCACAGCAGAAGCGUUCACGUCGCAGCCCCUGUCAGAUUCUGGUGAAUCUGCGAAUUCUGCUGUAUAUCUC

Variants of: B1
Experiment: self-cleavage, relative activity (ratio to wild type); higher = more cleavage; in vitro, sequencing
Procedure, shortened: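 Libraries of CPEB3 self-cleaving ribozyme mutants came from rounds of error-prone PCR and carried barcodes, which DNA sequencing matched to variants. In vitro transcription used T7 RNA polymerase at 37°C for 5 hours, with a further 15 min in DNase I before EDTA stopped the reaction; the ribozymes cleaved during both steps. The RNA was reverse transcribed with template switching and sequenced on Illumina. Relative activity is the cleaved/total read fraction of a variant divided by that of the unmutated ribozyme, averaged over three batches with at least 5 reads.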

Row | Variant | self-cleavage
1 | UAACAGGGGGCUACAGCAGAAGCGUUCACGUCGCAGCCCGUGCCAGAUUCUGGAGAAUCUGCGAAUUCUGCUGUACAUCUC [C12U C40G U43C U54A U76C] | 0.19
2 | UAACAGGGGGCUACAGCAGAAGCCUCCGCGUCGCGGCCCCUGUCAGAUUCUGGUGAAUCAGCGAAUUCUGCUGUAUAUCUC [C12U G24C U26C A28G A35G U60A] | 0.05
3 | UAACAGGGGGCUACAGCAGAAGCGUUCACGUCGCAGCCCCUGUCAGAUCCUGGUGAAUCUGCGAAUUCCGCUGUAUAUCUC [C12U U49C U69C] | 0.2
4 | UAACAGGGGGCUACAGCAGAAGCGAUCACGUCGCAGCCCCUGUCAGGUUCUGAUGAAUCUGCGAAUUCUGCUGUGUAUCUC [C12U U25A A47G G53A A75G] | 0.2
5 | UAACAGGGGGCUACAGCAGAAGCGUUCACAUCGCAGCACCUGUCAGAUUCUGGUGAAUCUGCGAUUUCUGCUGUAUAUCUC [C12U G30A C38A A65U] | 0.06
6 | UAACAGGGGGCUACACCAGAAGCGUUCUCGUCGCAGCCCCUGUCAGAUUCUGGAGAAUCUGCGAAUUCUGCUGUAUAUCUC [C12U G16C A28U U54A] | 0.22
7 | UAACAGGGGGCUACAGCAGAAGCGUUCACGUCGCAGCCCCUGUCAGAUUCUGGAGAACCCGCGGAUUCUGCUGUAUAUCUC [C12U U54A U58C U60C A64G] | 0.28
8 | UAACAGGGGGCUACAGCAGAAGCGUCCACGUCGCAGCCCCUGUCAGAUUCUGGUGAGUCUGCGAAUUCUGCUGUAUAUCUC [C12U U26C A57G] | 0.57
9 | UAACAGGGGGCUACAGCAGAAGCGUACACGUCGCAGCCCCUGUCAGGUUCUGGUGAAUCUGCGAAUUCUGCUGUAUAUCUC [C12U U26A A47G] | 1.15
10 | UAACAGGGGGCUACAGCAGAAGCGUCCACGUCGCAGCCCCUGUCAGAUUCUGGUGAAUCUGCGAAUUCUGCAGUAUAUCUC [C12U U26C U72A] | 0.16
11 | UAACAGGGGGCUACAGCAGAAGCGUUCACGUCGCAGCCCCUGACAGAUUCUGGAGAAUCUGCGAAUUCUGCUGUAUAUCUC [C12U U43A U54A] | 1.29
12 | UAACAGGGGGCUACAGCAGAAGCGCUCACGUCGCAGCCCCCGUCAGAUUCUGGUGAAUCUGCGAAUCCUGCUGUAUACCUC [C12U U25C U41C U67C U78C] | 0.08
13 | UAACAGGGGGCUACAGCAUAAGCGUUCACGUCGCAGCCCCUGUCAGAUUCUGGUGAAUCUGUGAAUUCUGCUGUAUAUCUC [C12U G19U C62U] | 0.34
14 | UAACAGGGGGCUACAGCAGAAGCGUUCACGUCGCAGCCCCUGUCAGAUACUGGUGAAUCUGCGAAUUCUGCUGUAUAACUC [C12U U49A U78A] | 0.89
15 | UAACAGGGGGCUACAGCAGAAGCGUUCACGCCGCAGCCCCUGUCAGAUUCUAGUGAAUCUGCGAAUUCUGCCGUAUAUCUC [C12U U31C G52A U72C] | 0.49
16 | UAACAGGGGGCUACAGCAGAAGCGUUCACGCCGCAGCCCCUGUAAGAUUCUGGUGAAUCCGCGAAUACUGCUGUAUAUCUC [C12U U31C C44A U60C U67A] | 0.11
17 | UAACAGGGGGCUACAGCAGAAGCGCUCACGUCGCAGCCCCUGUCAGAUUCUGGUGUAUCUGCGAAUUCUGCUGUAUAUCUC [C12U U25C A56U] | 0.11

Row | Variant | self-cleavage
18 | UAACAGGGGGCUACAGCAGAAGCGCUCACGUCGCAGCCCCUGUCAGAUUCUGGUGGAUCUGCGAAUUCUGCUGUAUAUCUC [C12U U25C A56G] | 0.2
19 | UAACAGGGGGCUACAGCAGAAGCGUUCACGUCGCAGCCCCUGUCAGAUUCUGGGGAAUCUGCGAAUUCUGCUGUAUACCUC [C12U U54G U78C] | 1.13
20 | UAACAGGGGGCUACAGCAGAAGCAUUCACGUCGCAGCCCCGGUCAGAUUCUGGUGAAUCUGCGAAUUCUGCCGUAUACCUC [C12U G24A U41G U72C U78C] | 0.08
21 | UAACAGGGGGCCCCGGCAGAAGCGUUCACGUCGCAGCCCCGGUCAGAUUCUGGUGAAUCUGCGAAUUCUGCUGUAUAUCUC [A13C A15G U41G] | 0.23
22 | UAACAGGGGGCUACAGCAGAAGCGUCCUCGUCGCAGCCCCUGUCAGAUUCUGGUGAAUCUGCGAAUUCUGCUGUAUAUCCC [C12U U26C A28U U80C] | 0.39
23 | UAACAGGGGGCUACAGCAGAAGCGUCCUCGUCGCAGCCCCCGUCAGAUUCUGGUGAAUCUGCGAAUUCUGCUGUAUAUCUC [C12U U26C A28U U41C] | 0.3
24 | UAACAGGGGGCUACAGCAGAAGCGCUCACGUCGCAGCCCCUGUCAGAUUCUGGUGGAUCUGCGAAUUAUGCUGUAUAUCUC [C12U U25C A56G C68A] | 0.08
25 | UAACAGGGGGCUACAGCAGAAGCGUUCACGUCGCAGCCCCUGUUGGAUUCUGGUGAAUCUGCGAAUUCUGCUGUAUAUCUC [C12U C44U A45G] | 0.91
26 | UAACAGGGGGCUACAGCAGAAGCGUUCACGUCGCAGCCCCUGUCAGAAUCUGGUGAAUCUGCGAAUUCUGCUGCAUAUCUC [C12U U48A U74C] | 1.12
27 | UAACAGGGGGCUACAGCAGAAGCGUCCACGUCGCAGCCCCAGUCAGACUCUGGUGAGUCUGCGAAUUCUGCUGUAUAUCUC [C12U U26C U41A U48C A57G] | 0.14
28 | UAACAGGGGGCUACAGCAGAAGCGCUCACGUCGCAGCCCCUGUCAGUUUCUGGUGGAUCUGCGAAUUCAGCUGUAUAUCUC [C12U U25C A47U A56G U69A] | 0.12
29 | UAACAGGGGGCUACAGCAGAAGCGUCCACGUCGCAGCCCCUGUCAGAUUCUGGUGAAUCUGCGAAUUCUGCUGUACUUCUC [C12U U26C U76C A77U] | 0.92
30 | UAACAGGGGGCUACAGCAGAAGCGUUCACGUCGCAGCCCCUGUCAGAUUCUGGUGAAUCCGCGUGCUCUGCUGUAUAUCUC [C12U U60C A64U A65G U66C] | 0.46
31 | UAACAGGGGGCUACAGCAGAAGCGUUCACGUCGCAGCCCCUGUCAGACUCUGGUGAAUCUGCGAAUUCUGCUGAAUAUCUC [C12U U48C U74A] | 1.18
32 | UAACAGGGGGCCCCGGCAGAAGCGUUCACGUCGCAGCCCCUGUCAGAUUCUGGUGAAUCUGCGAAUUGUGCUGUUUAUCUC [A13C A15G C68G A75U] | 0.08
33 | UAACAGGGGGCUACAGCAGAAGCGUUCACGACGCAGCCCCUGUCAGGUUCUGGUGAGUCUGCGAAUUCUGCUGUAUAUCCC [C12U U31A A47G A57G U80C] | 0.35
34 | UAACAGGGGGCUACAGCAGAAGCGUUCACAUCGCAGCCCCCGUCAGAUUCUGGUGAAUCUGCGAAUUCCGCUGUAUAUCUC [C12U G30A U41C U69C] | 0.13
